The campaign covered roughly 310,000 compounds. About 14,000 (4.5%) showed an effect of 50% or more. The effect is printed as a negative number. The list shows a part of the results. Where a SMILES comes first, the peptide text is derived from it. The star is where a group is joined. Boc = CC(C)(C)OC(=O)*; Bn = c1ccc(C*)cc1
Target: human ether-à-go-go-related gene (hERG) potassium channel (human, UniProt Q12809)
Test: primary screen, population patch clamp on CHO cells stably expressing hERG
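Note: peak tail current of the secondary pulse compared with the same well before compound.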

human ether-à-go-go-related gene (hERG) potassium channel, sequence (Q12809 whole entry, looked up): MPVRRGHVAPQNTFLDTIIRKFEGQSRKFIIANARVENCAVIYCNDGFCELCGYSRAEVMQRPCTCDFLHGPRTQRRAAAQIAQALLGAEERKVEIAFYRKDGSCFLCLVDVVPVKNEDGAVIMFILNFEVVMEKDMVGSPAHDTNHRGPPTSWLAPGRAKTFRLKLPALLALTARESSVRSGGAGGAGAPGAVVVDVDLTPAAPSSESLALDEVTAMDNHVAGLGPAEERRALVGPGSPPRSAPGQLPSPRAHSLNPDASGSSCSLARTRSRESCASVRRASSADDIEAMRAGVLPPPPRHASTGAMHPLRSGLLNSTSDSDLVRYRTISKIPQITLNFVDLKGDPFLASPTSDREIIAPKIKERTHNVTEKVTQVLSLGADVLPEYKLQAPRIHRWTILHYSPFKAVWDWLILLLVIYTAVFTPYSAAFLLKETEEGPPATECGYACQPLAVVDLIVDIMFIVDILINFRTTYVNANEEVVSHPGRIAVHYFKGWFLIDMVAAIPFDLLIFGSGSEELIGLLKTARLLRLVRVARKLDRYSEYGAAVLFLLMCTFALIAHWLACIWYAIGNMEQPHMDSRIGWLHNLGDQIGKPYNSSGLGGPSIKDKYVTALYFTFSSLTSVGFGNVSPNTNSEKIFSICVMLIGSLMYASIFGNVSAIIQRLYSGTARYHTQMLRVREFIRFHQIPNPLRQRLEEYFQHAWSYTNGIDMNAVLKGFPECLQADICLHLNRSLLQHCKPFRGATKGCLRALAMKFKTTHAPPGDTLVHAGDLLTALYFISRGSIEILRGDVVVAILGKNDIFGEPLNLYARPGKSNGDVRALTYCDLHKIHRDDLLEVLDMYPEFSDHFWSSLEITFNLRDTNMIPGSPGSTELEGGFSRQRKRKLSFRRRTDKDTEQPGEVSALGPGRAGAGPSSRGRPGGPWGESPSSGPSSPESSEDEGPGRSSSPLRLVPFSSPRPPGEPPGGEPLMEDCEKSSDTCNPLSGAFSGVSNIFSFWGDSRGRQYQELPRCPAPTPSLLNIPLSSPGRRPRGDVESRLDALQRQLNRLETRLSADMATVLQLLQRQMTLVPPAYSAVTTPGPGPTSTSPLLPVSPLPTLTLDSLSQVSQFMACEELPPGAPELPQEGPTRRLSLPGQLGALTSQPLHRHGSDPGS

Question: How did the “hERG current change (%, negative = inhibition) at 10uM” value turn out when O=S(=O)(c1ccc(Cl)cc1)N1CCN(C(=S)Nc2ccc(F)c(Cl)c2)CC1 was run?
Answer: The value was 9.01%.

Question: O=C(NCCN1CCOCC1)C(Sc1ccccc1)c1ccccc1 (centres unmarked) was tested. Which “hERG current change (%, negative = inhibition) at 10uM” value did it give?
Answer: Its value is -13.5%.

Question: How did the “hERG current change (%, negative = inhibition) at 10uM” value turn out when O=C(Cn1c(=O)c2ccccc2n(CC(=O)N2CCCCC2)c1=O)N1CCCCC1 was run?
Answer: Its value is 5.67%.

Question: Which “hERG current change (%, negative = inhibition) at 10uM” value does the source give for CCOC(=O)C1C(=O)C=C(c2ccc([N+](=O)[O-])cc2)CC1c1ccccc1 (centres unmarked) here?
Answer: Its value is -63.5%.

Question: For CCOC(=O)C1CCCN(CC(=O)Nc2cccc(C(C)=O)c2)C1 (centres unmarked), which “hERG current change (%, negative = inhibition) at 10uM” value is on record?
Answer: The value was 30.2%.

Question: COc1cnc(SCCC(F)=C(F)F)[nH]c1=O was tested. Which “hERG current change (%, negative = inhibition) at 10uM” value did it give?
Answer: Its value is 18.4%.

Question: CCOc1ccc(-n2ccnc2SCC(=O)Nc2nnc(CC)s2)cc1 was tested. Which “hERG current change (%, negative = inhibition) at 10uM” value did it give?
Answer: Its value is -11.9%.

Question: For CN1CCN(CCNC(=O)Nc2ccc(Cl)cc2)CC1, which “hERG current change (%, negative = inhibition) at 10uM” value is on record?
Answer: Its value is -0.17%.

Question: How did the “hERG current change (%, negative = inhibition) at 10uM” value turn out when O=C(Nc1ccc(Br)cc1)c1cc(-c2cccs2)on1 was run?
Answer: The value was 9.55%.

Question: Cc1[nH]c(=O)c(C#N)c(C)c1CCC(=O)N(C)CC(=O)Nc1ccc(Cl)c(Cl)c1 was tested. Which “hERG current change (%, negative = inhibition) at 10uM” value did it give?
Answer: Its value is 20.9%.

Question: How did the “hERG current change (%, negative = inhibition) at 10uM” value turn out when O=C(COC(=O)Cn1cnc2ccccc2c1=O)Nc1ccccc1Sc1ccc(Cl)cc1 was run?
Answer: Its value is 0.2%.

Question: Which “hERG current change (%, negative = inhibition) at 10uM” value does the source give for CC(Oc1ccc(Br)cc1)C(=O)NC1CCN(Cc2ccccc2)CC1 (centres unmarked) here?
Answer: Its value is -80.4%.

Question: For Cc1ccc(S(=O)(=O)NC(=O)C2CCCCC2)cc1, which “hERG current change (%, negative = inhibition) at 10uM” value is on record?
Answer: Its value is 14.3%.

Question: For CCCCNC(=O)NCCN1CCOCC1, which “hERG current change (%, negative = inhibition) at 10uM” value is on record?
Answer: The value was 28.7%.

Question: For C=CCNC(=O)CN(c1cccc(Br)c1)S(C)(=O)=O, which “hERG current change (%, negative = inhibition) at 10uM” value is on record?
Answer: Its value is -4.93%.

Question: Which “hERG current change (%, negative = inhibition) at 10uM” value does the source give for N[C@@H](Cc1ccccc1)c1nnc2sc(SCc3ccccc3)nn12 here?
Answer: Its value is -23.6%.

Question: How did the “hERG current change (%, negative = inhibition) at 10uM” value turn out when COc1cc(/C=C(\CC(=O)O)c2nc3ccccc3s2)cc(OC)c1O was run?
Answer: Its value is -2.3%.

Question: Which “hERG current change (%, negative = inhibition) at 10uM” value does the source give for CC(C)CC(NC(=O)C(NC(=O)C(Cc1ccc(OCc2ccccc2)cc1)NC(=O)OC(C)(C)C)C(C)C)C(N)=O (stereo not drawn) (Boc-Tyr(Bn)-Val-Leu-NH2; configuration not given here) here?
Answer: The value was 8.21%.

Question: For CCOC(=O)c1ccc(NC(=O)NCCN2CCCCC2)cc1, which “hERG current change (%, negative = inhibition) at 10uM” value is on record?
Answer: The value was -31.6%.

Question: How did the “hERG current change (%, negative = inhibition) at 10uM” value turn out when CCCCn1c(=O)[nH]c(=O)c2c1nc(CN(C)Cc1cccc(OC)c1OC)n2CCC.O=C(O)C(=O)O was run?
Answer: Its value is 18.5%.

Question: Which “hERG current change (%, negative = inhibition) at 10uM” value does the source give for CC1CCCc2sc3nc(NCc4ccco4)n4ncnc4c3c21 (centres unmarked) here?
Answer: The value was 8.43%.

Question: For O=C(O)CN1C(=O)c2ccc(C(=O)c3ccccc3)cc2C1=O, which “hERG current change (%, negative = inhibition) at 10uM” value is on record?
Answer: The value was 16.3%.

Question: CC1=NN(c2ccc(Br)cc2)C(=O)/C1=C/c1ccc(-c2ccccc2C(=O)O)o1 was tested. Which “hERG current change (%, negative = inhibition) at 10uM” value did it give?
Answer: The value was 26.4%.

Question: Which “hERG current change (%, negative = inhibition) at 10uM” value does the source give for CN1CCN(c2nc3c(c(=O)n(C)c(=O)n3C)n2CC(N)=O)CC1 here?
Answer: The value was -4.88%.

Question: How did the “hERG current change (%, negative = inhibition) at 10uM” value turn out when CCN(CC)S(=O)(=O)c1ccc(N2CCOCC2)c(NC(=O)CC2OC(=O)c3ccccc32)c1 (centres unmarked) was run?
Answer: The value was -26%.

Question: How did the “hERG current change (%, negative = inhibition) at 10uM” value turn out when Cc1ccc2c(c1)NC(=O)C(CC(=O)O)O2 (centres unmarked) was run?
Answer: Its value is 21.1%.

Question: COc1ccc(Cl)cc1S(=O)(=O)Nc1ccc(Cl)cn1 was tested. Which “hERG current change (%, negative = inhibition) at 10uM” value did it give?
Answer: Its value is 5.84%.

Question: For COc1ccccc1NC(=O)C1=C(C)NC(=O)NC1c1ccc(C)s1 (centres unmarked), which “hERG current change (%, negative = inhibition) at 10uM” value is on record?
Answer: Its value is 10.7%.

Question: With C=CCOc1ccc(/C=C/C(=O)OCC(=O)N(C)CC(=O)Nc2ccccc2Cl)cc1 as the molecule, how does the “hERG current change (%, negative = inhibition) at 10uM” value read?
Answer: Its value is -4.18%.

Question: O=C(NCCC(=O)N1CCN(C(=O)c2ccco2)CC1)c1ccc(Br)cc1 was tested. Which “hERG current change (%, negative = inhibition) at 10uM” value did it give?
Answer: The value was -28.6%.

Question: Which “hERG current change (%, negative = inhibition) at 10uM” value does the source give for CCOC(=O)C1(CCCc2ccccc2)CCN(Cc2cn(CC)nc2C)CC1 here?
Answer: Its value is -74.1%.

Question: For CNC(=O)c1ccsc1NC(=O)C1CCN(S(=O)(=O)c2cccs2)CC1, which “hERG current change (%, negative = inhibition) at 10uM” value is on record?
Answer: Its value is -55.1%.

Question: With CCC(Oc1ccccc1)C(=O)Nc1nnc(S(=O)(=O)N2CCCC2)s1 (centres unmarked) as the molecule, how does the “hERG current change (%, negative = inhibition) at 10uM” value read?
Answer: Its value is 7%.

Question: CC1CCCC(NC(=O)C2CCN(S(=O)(=O)c3cnc[nH]3)CC2)C1C (centres unmarked) was tested. Which “hERG current change (%, negative = inhibition) at 10uM” value did it give?
Answer: Its value is 10.2%.

Question: With Cc1nc(Nc2cccc(F)c2)c2oc3ccccc3c2n1 as the molecule, how does the “hERG current change (%, negative = inhibition) at 10uM” value read?
Answer: Its value is 7.85%.

Question: How did the “hERG current change (%, negative = inhibition) at 10uM” value turn out when O=C(O)CC(Cc1ccc(Cl)cc1)C(=O)NCc1ccccc1 (centres unmarked) was run?
Answer: Its value is 3.42%.

Question: Which “hERG current change (%, negative = inhibition) at 10uM” value does the source give for CN(Cc1cccs1)C(=O)CN1C(=O)c2ccccc2S1(=O)=O here?
Answer: The value was 5.39%.

Question: With CCCCSc1ccc(NC(=O)c2cccnc2)cc1 as the molecule, how does the “hERG current change (%, negative = inhibition) at 10uM” value read?
Answer: The value was 4.42%.

Question: How did the “hERG current change (%, negative = inhibition) at 10uM” value turn out when CSc1nncc(/C(C)=N/O)n1 was run?
Answer: Its value is 8.64%.

Question: CCn1cnc2sc(C(=O)Nc3ccccc3OC)c(C)c2c1=O was tested. Which “hERG current change (%, negative = inhibition) at 10uM” value did it give?
Answer: Its value is 0.29%.

Question: With COc1ccc(CCNC(=O)CCC(=O)NC2CCCCC2)cc1OC as the molecule, how does the “hERG current change (%, negative = inhibition) at 10uM” value read?
Answer: The value was 5.82%.

Question: With CC1(c2ccc(Cl)cc2Cl)OCC(Cn2ccnc2)O1.O=C(O)C(=O)O (centres unmarked) as the molecule, how does the “hERG current change (%, negative = inhibition) at 10uM” value read?
Answer: The value was -10%.

Question: How did the “hERG current change (%, negative = inhibition) at 10uM” value turn out when COc1ccc(Cc2nnc(N/N=C/c3ccc(C)o3)[nH]c2=O)cc1 was run?
Answer: The value was 25.9%.

Question: Cc1nc(NC(=O)c2cccs2)ccc1Br was tested. Which “hERG current change (%, negative = inhibition) at 10uM” value did it give?
Answer: The value was 2.41%.

From paper PMC4336329 (PLoS ONE, 2015)
